Laboratory results taken from a collection of fitness landscapes (doi:10.1126/science.1257360).
The other results are listed elsewhere or left out.

B1: PhoQ; a variant is named by its letters at X, in order, P23837 (parent)
chain: MKKLLRLFFPLSLRVRFLLATAAVVLVLSLAYGMVALIGYSVSFDKTTFRLLRGESNLFYTLAKWENNKLHVELPENIDKQSPTMTLIYDENGQLLWAQRDVPWLMKMIQPDWLKSNGFHEIEADVNDTSLLLSGDHSIQQQLQEVREDDDDAEMTHSVAVNVYPATSRMPKLTIVVVDTIPVELKSSYMVWSWFIYVLSANLLLVIPLLWVAAWWSLRPIEALAKEVRELEEHNRELLNPATTRELTSLVRNLNRLLKSERERYDKYRTTLTDLTHSLKTPLXXLQXXLRSLRSEKMSVSDAEPVMLEQISRISQQIGYYLHRASMRGGTLLSRELHPVAPLLDNLTSALNKVYQRKGVNISLDISPEISFVGEQNDFVEVMGNVLDNACKYCLEFVEISARQTDEHLYIVVEDDGPGIPLSKREVIFDRGQRVDTLRPGQGVGLAVAREITEQYEGKIVAGESMLGGARMEVIFGRQHSAPKDE

Variants of: B1
Assay: enrichment ratio after two sorts for PhoP signalling (ratio (wild type AVST 3.29)); higher = more functional
Details: with PhoP (E. coli)

Row | Variant | enrichment ratio
1 | FHWK | ≤ 0.25
2 | WCPM | ≤ 0.25
3 | AATV | 6.21
4 | GDTR | ≤ 0.25
5 | HSFN | ≤ 0.25
6 | GKSY | ≤ 0.25
7 | DVPP | ≤ 0.25
8 | QHFH | ≤ 0.25
9 | PKTN | ≤ 0.25
10 | SFGP | ≤ 0.25
11 | KITS | ≤ 0.25
12 | AELH | 11.9
13 | RVVK | ≤ 0.25
14 | YAHM | ≤ 0.25
15 | WSEM | ≤ 0.25
16 | FNNP | ≤ 0.25
17 | RGAI | ≤ 0.25
18 | SGIK | ≤ 0.25
19 | PFKG | ≤ 0.25
20 | PMSL | ≤ 0.25
21 | FKAT | ≤ 0.25

Row | Variant | enrichment ratio
22 | TQCA | 17.6
23 | AYNW | ≤ 0.25
24 | DSCV | ≤ 0.25
25 | RKFT | ≤ 0.25
26 | NFGI | ≤ 0.25
27 | WNGH | ≤ 0.25
28 | GQYC | ≤ 0.25
29 | GGFY | ≤ 0.25
30 | QMMM | ≤ 0.25
31 | KKLA | ≤ 0.25
32 | AGDV | ≤ 0.25
33 | SIGK | 4.3
34 | LWEN | ≤ 0.25
35 | ENMM | ≤ 0.25
36 | SRRR | ≤ 0.25
37 | EMTA | ≤ 0.25
38 | GSQD | ≤ 0.25
39 | GHKS | ≤ 0.25
40 | TDTT | 3.25
41 | VIYL | ≤ 0.25
42 | TTNY | 25.4

Row | Variant | enrichment ratio
43 | LSFK | ≤ 0.25
44 | KYHD | ≤ 0.25
45 | NSQW | ≤ 0.25
46 | KVQA | ≤ 0.25
47 | EAES | ≤ 0.25
48 | WEKI | ≤ 0.25
49 | TKWN | ≤ 0.25
50 | QMTR | ≤ 0.25
51 | PYSK | ≤ 0.25
52 | KKEI | ≤ 0.25
53 | YTEV | ≤ 0.25
54 | MWAN | ≤ 0.25
55 | SCAF | 16.3
56 | YGPA | ≤ 0.25
57 | EMFA | ≤ 0.25
58 | YVKL | ≤ 0.25
59 | LNLI | ≤ 0.25
60 | SFKM | ≤ 0.25
61 | NPSC | ≤ 0.25
62 | TNGI | 15.2
63 | APGM | ≤ 0.25

Row | Variant | enrichment ratio
64 | YKAW | ≤ 0.25
65 | MCKW | ≤ 0.25
66 | TNPL | ≤ 0.25
67 | RFPQ | ≤ 0.25
68 | TRDQ | ≤ 0.25
69 | FCNQ | ≤ 0.25
70 | TNKW | ≤ 0.25
71 | TGNR | ≤ 0.25
72 | HRVQ | ≤ 0.25
73 | DMDI | ≤ 0.25
74 | VLYD | ≤ 0.25
75 | HEFL | ≤ 0.25
76 | IELM | 10
77 | PKWI | ≤ 0.25
78 | LHPF | ≤ 0.25
79 | MAWP | ≤ 0.25
80 | MLDW | ≤ 0.25
81 | DRKM | ≤ 0.25
82 | MRDW | ≤ 0.25
83 | QTYW | ≤ 0.25
84 | GRFW | ≤ 0.25
